Data on 56 sequences can be found in the supplement of paper PMC11417369.

The list shows a part of the results.

This experiment has as its system PfSIP2 AP2 domain 1 (GST-tagged). As to the kind of experiment: gcPBM binding intensity (ln(normalized median fluorescence intensity)); higher = stronger DNA binding. Put shortly:
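GST-tagged P. falciparum DNA-binding domains produced in E. coli were incubated for 1 h on an Agilent 4 × 180k array of primer-extended double-stranded 36-bp intergenic genomic probes with negative controls. Binding intensity is the highest Masliner-normalised natural-log median intensity across replicate spots of either probe orientation, with bound protein detected by Alexa488 anti-GST antibody at 488 nm.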
Consider “TATTGACAAAATAGCTGTACAAATTAAAAGAAATAA [XGTACX_site4415]”, for which the “gcPBM binding intensity (ln)” value came to 6.97.

With “CTTAAAAAAAAAAAATGTACACATAAAAAAAATACA [XGTACX_site6700]”, the “gcPBM binding intensity (ln)” value was 7.05.

Turning to “TTTAATTGATAATGAAGACAATTATATGCATCCAAA [TGCATGCA_negctrl_site138]”, the “gcPBM binding intensity (ln)” value worked out at 6.79.

On to “TTATTGTCTTCTCATATACACACTTTTATGACTATC [CACACA_site3142]”, for which the “gcPBM binding intensity (ln)” value is 7.35.

Turning to “AAACATATATATATTATATATATATATATATATATG [GTGCAC_negctrl_site182]”, the “gcPBM binding intensity (ln)” value was found to be 7.73.

Consider “TAACATATAATATTCACACACATATATATATTATAT [CACACA_site988]”, for which the “gcPBM binding intensity (ln)” value turned out to be 7.11.

As to “AAATTAAAAAGACATTCACACATTTTCATCTTAACA [CACACA_site5221]”, the “gcPBM binding intensity (ln)” value is 6.75.

For the sequence “TAAAATATTATAAAATGTACAAAACATATAAATATA [XGTACX_site5315]”, the “gcPBM binding intensity (ln)” value was determined as 6.8.

Take “TGTAGGTATTATTATACACACATAAAAAAAAAAAAA [CACACA_site3598]”: the “gcPBM binding intensity (ln)” value is 7.05.

As for “TATTATTATCTTACCACACACAATGTACGAAAAGAT [CACACA_site352]”, the “gcPBM binding intensity (ln)” value worked out at 7.16.

Turning to “TATATTTTCTATAGGTGTACTCCACATGCGGTGTTA [XGTACX_site7471]”, the “gcPBM binding intensity (ln)” value was found to be 7.06.

Consider “ATATTGATACATCCAATACACACTACATATAATGAT [CACACA_site1874]”, for which the “gcPBM binding intensity (ln)” value came out at 6.99.

Take “ATATATGATGTAAAAGCACACATATATATATATATA [CACACA_site9330]”: the “gcPBM binding intensity (ln)” value came out at 9.63.

Turning to “TCCCTCTTTTTATTCTCACACACGTTTATATATAAA [CACACA_site1644]”, the “gcPBM binding intensity (ln)” value is 7.93.

As to “AATATATATAAATATTGTACAAAAATATATATATAT [XGTACX_site2910]”, the “gcPBM binding intensity (ln)” value was found to be 8.99.

With “AAACATCTTTACAACGTCCCTCCTTTTTTATGTACC [GTGCAC_negctrl_site528]”, the “gcPBM binding intensity (ln)” value came out at 6.76.

In the case of “TATATAAACATATAAACATGCAATATATATATGTTA [TGCATGCA_site765]”, the “gcPBM binding intensity (ln)” value came out at 6.97.

On to “AAAAATATATAACAAAGTACATATATATTTAGTAAT [XGTACX_site8791]”, for which the “gcPBM binding intensity (ln)” value stood at 6.71.

In the case of “GGAAAAAAACTTATGAGTACACATAAATATAGCACA [XGTACX_site6686]”, the “gcPBM binding intensity (ln)” value turned out to be 7.66.

Take “AAAAAAATTAAATCAAGTACTCATTCTTAAATTATA [XGTACX_site1274]”: the “gcPBM binding intensity (ln)” value stood at 6.89.

With “AATATAATATAATGCACACATAAAAAAAAAATCAAA [CACACA_site122]”, the “gcPBM binding intensity (ln)” value was determined as 7.39.

“TTTTTATATAACCTTCTTAATTCTTTTTTTTTTTTT [XGTACX_negctrl_site591]”: the “gcPBM binding intensity (ln)” value came out at 6.76.

On to “AAAACAAAATTATGAACATGCAAGGTAAAATTGTAA [TGCATGCA_site775]”, for which the “gcPBM binding intensity (ln)” value was determined as 7.29.

As to “GTACAAATGTTGTGTATATATACACACATACATATA [XGTACX_negctrl_site276]”, the “gcPBM binding intensity (ln)” value came to 7.23.

As for “AACTTACTTGGACATACACACATATAGATTTATATA [CACACA_site7412]”, the “gcPBM binding intensity (ln)” value was determined as 7.32.

As to “ATGTAGTTTTATCAGTGTACAAGTATTTTATCACAT [XGTACX_site8958]”, the “gcPBM binding intensity (ln)” value was 7.01.

With “AAAATATATATATATATATATATATGTATACTCCTA [XGTACX_negctrl_site312]”, the “gcPBM binding intensity (ln)” value amounted to 7.96.

“TTTTATGTTTCAAAATGTACATTAAAATATACCATA [XGTACX_site1713]”: the “gcPBM binding intensity (ln)” value came out at 7.01.

In the case of “TTATTTATAAATATTAATTTTTTTTTTTTTTTTTTT [XGTACX_negctrl_site105]”, the “gcPBM binding intensity (ln)” value was found to be 7.8.

For “CATATGCATACTATACGTACATATGTATATAATATA [XGTACX_site7738]”, the “gcPBM binding intensity (ln)” value came to 7.18.

Consider “TTTTATTATTGAATACTAGTATATATAATATGAAGA [CACACA_negctrl_site910]”, for which the “gcPBM binding intensity (ln)” value is 7.22.

For “ATATATATATTTTTTAAACACACACCGAAATATTTG [CACACA_site8937]”, the “gcPBM binding intensity (ln)” value stood at 8.3.

As for “TTAATTAAAACGAATACACACATAAATATATAAAAG [CACACA_site1254]”, the “gcPBM binding intensity (ln)” value amounted to 7.27.

“TATATATATATGTGCACACATAATAAAAAAAAAAAT [CACACA_site3831]”: the “gcPBM binding intensity (ln)” value was 9.49.

“TATAAAGCATATTAAAGTACTTATTTTCCTTTTTCT [XGTACX_site8892]”: the “gcPBM binding intensity (ln)” value came out at 6.75.

Turning to “TTTTATTTTATTCTTAAATAAGTATTATAAAATATG [XGTACX_negctrl_site201]”, the “gcPBM binding intensity (ln)” value came to 6.75.

On to “TTATTTGAACAATATGCACACATTTTATTTATTTTA [CACACA_site3420]”, for which the “gcPBM binding intensity (ln)” value is 7.13.

Take “TTAATGTTGTATGGTTGTACAATAAGCCCCTTTTAA [XGTACX_site2484]”: the “gcPBM binding intensity (ln)” value worked out at 6.99.

For “TATGATGATATAAAAACACACACATATAATATAATA [CACACA_site8321]”, the “gcPBM binding intensity (ln)” value amounted to 7.13.

Regarding “TTAAAGCTTACATATACACACATACATAAATTCATA [CACACA_site8785]”, the “gcPBM binding intensity (ln)” value is 7.07.

On to “GTAAAATAAAATATATGTACATATGTATATGAGGTA [XGTACX_site3743]”, for which the “gcPBM binding intensity (ln)” value turned out to be 7.24.

Regarding “GACATATTCCCCCCCACACACACACCCACATACATA [CACACA_site2302]”, the “gcPBM binding intensity (ln)” value was 9.81.

In the case of “TTTTGATCATCCAAAATATCTTCATCTGAACTACTA [CACACA_negctrl_site939]”, the “gcPBM binding intensity (ln)” value is 6.58.

Consider “TACCCTGATCGGCATGCATGTAAGTAACAAATATAT [TGCATGCA_site153]”, for which the “gcPBM binding intensity (ln)” value is 7.05.

As to “ATTTAGAAATATATTTGTACATATATATATATATAT [XGTACX_site7129]”, the “gcPBM binding intensity (ln)” value was 9.63.

Regarding “ATTCAAACAAATTAATGTACATATATATAAGATATT [XGTACX_site1531]”, the “gcPBM binding intensity (ln)” value is 7.

On to “ATATATACATATAAATGTACATAATTATTATGCACA [XGTACX_site1261]”, for which the “gcPBM binding intensity (ln)” value is 9.26.

Consider “ATAAAAAGAAAAAAGGGTACACTATACTATTTAAAA [XGTACX_site4467]”, for which the “gcPBM binding intensity (ln)” value was determined as 7.18.

As for “CTACATATTAATATATGTACATATTAATATATCTAA [XGTACX_site7118]”, the “gcPBM binding intensity (ln)” value turned out to be 7.01.

As to “TGTTGATAAAAAATAAAAAATAAAAAAATAAAATAT [TGCATGCA_negctrl_site559]”, the “gcPBM binding intensity (ln)” value turned out to be 6.88.

Take “AATGTGCACACGCGTACACACAAAAAAAGAAAAAAA [CACACA_site7031]”: the “gcPBM binding intensity (ln)” value turned out to be 9.68.

“TATTATTTGAGTAGTTGTACTCATTAATATATAAAA [XGTACX_site3468]”: the “gcPBM binding intensity (ln)” value was 7.45.

Turning to “TATTAATTTCACCTTTCACATATGGAAAAAAAAAAA [CACACA_negctrl_site1243]”, the “gcPBM binding intensity (ln)” value turned out to be 7.03.

Consider “CAAAATATTTATATCACACATATAAATAAAAATAAA [CACACA_site6028]”, for which the “gcPBM binding intensity (ln)” value amounted to 6.98.

With “ATTAACATTTTCGTATGTACATATATAATATATGTT [XGTACX_site7184]”, the “gcPBM binding intensity (ln)” value was 7.1.

Regarding “ATGTTTATTTATTTATGTACTTATATATTTATATAT [XGTACX_site7924]”, the “gcPBM binding intensity (ln)” value turned out to be 7.15.
